Experimental data: the supplement of paper PMC11417369
Some of the results follow.

tested on: PfSIP2 AP2 domain 1 (GST-tagged); experiment: gcPBM binding intensity (ln(normalized median fluorescence intensity)); higher = stronger DNA binding
Procedure, shortened: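 The binding buffer was 1× PBS containing 1% milk, 0.2 mg/ml BSA, 0.5% salmon testes DNA and 0.03% Triton X-100. In it, GST-tagged P. falciparum DNA-binding domains expressed in E. coli were applied for 1 h to an Agilent 4 × 180k array of primer-extended double-stranded 36-bp intergenic genomic probes plus negative controls. Binding intensity, read with Alexa488 anti-GST antibody and a 488 nm scan, is the highest Masliner-normalised natural-log median intensity across replicate spots of either probe orientation.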

Going from “ATATAATAGAAGTGTACACACATATTTATGTCTGTA [CACACA_site3121]” to “ATGGATAACAATATGTGTACACATTTATATCTCCAC [XGTACX_site5457]”, the “gcPBM binding intensity (ln)” value rises from 7.14 to 7.32.

Going from “AAGCATGGATATTTTACACACATTTCCACGTAACAA [CACACA_site3141]” to “ATACATTTTTTTTATACGCACACGTCATACTTTTAA [CACACA_site1638]”, the “gcPBM binding intensity (ln)” value rises from 6.77 to 7.35.

First: CTAGCAAATACATACACACACACACCGATACATATA [CACACA_site9164]
Second: ACAAGACAGATATATACACACATACATACATACATA [CACACA_site7472]
The “gcPBM binding intensity (ln)” value of the first is lower: 7.13 for the first, 7.17 for the second.

First: ATATTTATTTATATTACACACATGTGCAATTAAACT [CACACA_site6928]
Second: TTTCTTAAAAAAAAAAAAAAAAGAAGATAAATAAAA [CACACA_negctrl_site289]
The “gcPBM binding intensity (ln)” value of the first is higher: 7.07 for the first, 6.61 for the second.

Going from “TTTAACTTATTCAATGCACACATTTTAATAAGATAT [CACACA_site1967]” to “TCACATGGAAAAAAGTGTACATAATTATGTATAAAT [XGTACX_site2827]”, the “gcPBM binding intensity (ln)” value rises from 7.16 to 7.18.

Compared with “TATAAAAAATAAAAAGTTTAATGAATATTTCTTTTA [TGCATGCA_negctrl_site379]”, “ATATATATAACATATACACACGTTCATATATATATA [CACACA_site4416]” is higher in “gcPBM binding intensity (ln)” value: 6.52 for the first, 9.1 for the second.

Compared with “TAATTTTTATTTTATTTTATTTTTTTTTTTTTTATT [CACACA_negctrl_site1671]”, “TTACAAGTAAAAGGTACACACATTATATATACAAAT [CACACA_site8290]” is higher in “gcPBM binding intensity (ln)” value: 6.86 for the first, 7.11 for the second.

Compared with “TCCCTAAAAAATGATAAATGGAGACAATTCCGACAA [GTGCAC_negctrl_site209]”, “TTATATATATTTAAATTTTATCTCACATATATATAT [TGCATGCA_negctrl_site275]” is higher in “gcPBM binding intensity (ln)” value: 6.83 for the first, 8.52 for the second.

Going from “AAAAAAAAAAAAATCACACACAATATGAATTTATAG [CACACA_site601]” to “AATACAATTTCTAGCACACAAAATATTATTATAATT [CACACA_site3223]”, the “gcPBM binding intensity (ln)” value rises from 6.97 to 7.06.

Going from “TATAGAAGCGTTCACACACACACATACATACCCATA [CACACA_site4915]” to “AAAAAACAATCTCATACACACTAGGGATTAATTATT [CACACA_site5051]”, the “gcPBM binding intensity (ln)” value falls from 7.13 to 6.93.

First: ATCATATGTATGCATACACACAAAAAGTTATTTATA [CACACA_site6325]
Second: GAAAATCAGTTAAACACACACATAAAAAAAAAAAAA [CACACA_site2875]
The “gcPBM binding intensity (ln)” value of the first is higher: 7.06 for the first, 6.89 for the second.

Going from “TCAAGTATTAAAATGGGTACATAAATATGTGTATAT [XGTACX_site5884]” to “CATATAAAAAAATAGACACACATTTTATATAATACG [CACACA_site1896]”, the “gcPBM binding intensity (ln)” value falls from 7.16 to 7.01.

Compared with “TATTTTTCTTTTTTTTTTTTTTTTATATTATACGTG [XGTACX_negctrl_site363]”, “CTTTTTAAATTAAAATGTACAGAAAAATATTATTAT [XGTACX_site8760]” is higher in “gcPBM binding intensity (ln)” value: 6.89 for the first, 7.04 for the second.

First: TATTTGTAAATCGATACACACATATATCTTAATATA [CACACA_site4273]
Second: TGGATAATGAATGATGCACACTAAAAATATTCTACA [CACACA_site5912]
The “gcPBM binding intensity (ln)” value of the first is lower: 6.72 for the first, 8.55 for the second.

Compared with “CGGCACGTGATATATACACACATATAGATATATACA [CACACA_site6408]”, “ATATATACTATATTTTAACACACAAAAAAAAAAAAT [CACACA_site8277]” is higher in “gcPBM binding intensity (ln)” value: 6.96 for the first, 7.01 for the second.

Going from “CTCAATATTATTACTACACACAAATTAATATTTTCC [CACACA_site55]” to “CTTTTTTCAAGACACACACACAAGAAAATATAAATA [CACACA_site7455]”, the “gcPBM binding intensity (ln)” value rises from 7.01 to 7.17.

First: TGTTAATTGAATGCAATCTGAATTTTTTTACATAAT [CACACA_negctrl_site1002]
Second: CACCCACCCAGACACACACACACAAAAAAAAAAAGA [CACACA_site499]
The “gcPBM binding intensity (ln)” value of the first is lower: 6.67 for the first, 7.48 for the second.

Compared with “TTTTTTTTTTTTAAATGTACTTATCAACTTTTATAT [XGTACX_site4641]”, “ACTTATATTATAAATTGTACAAATATTATATTTGGT [XGTACX_site1424]” is higher in “gcPBM binding intensity (ln)” value: 6.89 for the first, 7.02 for the second.

Compared with “CACTTACATAATTATTGTACAGATATTATCAAATAA [XGTACX_site567]”, “TTATTTTGTTTATTATGTACACAAAGACATAATAAT [XGTACX_site5648]” is lower in “gcPBM binding intensity (ln)” value: 7.41 for the first, 7.35 for the second.

Going from “AATAAAATAATCCAAGTGCATATGTAAAAATACATT [GTGCAC_site9576]” to “AATATATGTAAATGGACACACACATATATATATATA [CACACA_site9220]”, the “gcPBM binding intensity (ln)” value rises from 7.95 to 9.61.

Compared with “AAAAAAAAAAGACACACACACACACGCATATACATA [CACACA_site7289]”, “ACGGACAATACGGAAACACACAAGTTATTTTATCAT [CACACA_site7310]” is higher in “gcPBM binding intensity (ln)” value: 7.04 for the first, 7.06 for the second.

First: TACGTAAAAATAATACGTACATATATTTATAGAAAA [XGTACX_site4959]
Second: TTCTGTGTCTAAAAATGTACGGGAATATATAAAAGT [XGTACX_site2090]
The “gcPBM binding intensity (ln)” value of the first is lower: 7.13 for the first, 7.74 for the second.

Compared with “ACATAATATATATATTAACACACATCCTTTTATGTA [CACACA_site8317]”, “AACCATGTTAACAATGCATGCATCACTATATAAACG [TGCATGCA_site421]” is lower in “gcPBM binding intensity (ln)” value: 7.33 for the first, 6.84 for the second.

Going from “ATACATATATATAGGTGTACATATAATATATATATA [XGTACX_site2228]” to “TTTAATTTTACATGAGAAACATATTACAATAAAATA [GTGCAC_negctrl_site606]”, the “gcPBM binding intensity (ln)” value falls from 8.27 to 6.89.

Going from “GAAATACCGGAAAGCAAACACACATTTTAAAACCAT [CACACA_site3861]” to “ATATTTTTTGGAAAGTGTACAATATTATATATTAAA [XGTACX_site2163]”, the “gcPBM binding intensity (ln)” value rises from 6.98 to 7.02.

Compared with “ATATATGTAACATATTGTACATATATGTATGTATGT [XGTACX_site3281]”, “ATGATAAAATTATGTAGTACATATTTGAATGTAAAT [XGTACX_site688]” is lower in “gcPBM binding intensity (ln)” value: 7.64 for the first, 7 for the second.

Compared with “TAATTTCTTATGTAGTGTACAAATAATATATGATAT [XGTACX_site597]”, “AATATCTGTATATCCACACACATATATATATATATA [CACACA_site4987]” is higher in “gcPBM binding intensity (ln)” value: 7.22 for the first, 9.45 for the second.

Going from “TAATCGGTAATATTAACACACACATTTATATATATT [CACACA_site8274]” to “GTATTAATAAAAATACGTACTTATTATTTATAATAA [XGTACX_site7672]”, the “gcPBM binding intensity (ln)” value falls from 7.08 to 6.98.

Compared with “ATTATTCATATAACACGTACAAAACGAAAAACAAAT [XGTACX_site3873]”, “AATATCACCACATTGTTACTATAATATATAAAAAAG [XGTACX_negctrl_site384]” is lower in “gcPBM binding intensity (ln)” value: 7.65 for the first, 7.1 for the second.

Going from “AAAAGGAGAAATATTGCACACGTGCAAAATGGTATG [CACACA_site4300]” to “ATTCATAAAAGTTGTACATGCAATTTTTTTTTTTTT [TGCATGCA_site270]”, the “gcPBM binding intensity (ln)” value falls from 9.83 to 7.01.

First: ATTTTGTTATGAAACACACACATATATATATATATA [CACACA_site3650]
Second: TATATGCCTATAAGAAGTACTGTGTAATGTAATATA [XGTACX_site8089]
The “gcPBM binding intensity (ln)” value of the first is higher: 9.65 for the first, 6.87 for the second.

First: TAAACATAAATATGCACACATATACATATATTCATA [CACACA_site2667]
Second: AAGAAAAATATATTTATATATATATATATTAAATAT [TGCATGCA_negctrl_site500]
The “gcPBM binding intensity (ln)” value of the first is higher: 7.34 for the first, 7.16 for the second.

Compared with “AATTTTATACGATAAACATGCAAATAAATAAATAAA [TGCATGCA_site227]”, “AAAGAAAAAAAAAACACACACACACCCATTCAATAT [CACACA_site38]” is lower in “gcPBM binding intensity (ln)” value: 7.1 for the first, 6.95 for the second.

Going from “ACAGCCAATACGGAAACACACAAGTTATTTTATCAT [CACACA_site5507]” to “TATAATAATATTTATTGTACAATTAGTTTAATTCAT [XGTACX_site272]”, the “gcPBM binding intensity (ln)” value rises from 7.03 to 7.08.

Compared with “TTTATTATATAAACATGTACACAATTTGGTATATTC [XGTACX_site3112]”, AAATTATGCATCGAGGTGCGTCTTAAAATATAGTGG is higher in “gcPBM binding intensity (ln)” value: 7.24 for the first, 10.3 for the second.

First: ATATAAATTCAAATTACACACATTTATTTTTTTTAC [CACACA_site53]
Second: CTACATAATAAAAAAAGTACATTCTAATAAATTGAC [XGTACX_site4504]
The “gcPBM binding intensity (ln)” value of the first is lower: 7.01 for the first, 7.19 for the second.

Compared with “ACTAATAATTTGTCGGTGCATAAAATTATTTTTATT [GTGCAC_site9840]”, “ATATTATATATATAGGTGCGAGTATTTTATAAATAT [GTGCAC_site9889]” is lower in “gcPBM binding intensity (ln)” value: 10.7 for the first, 9.06 for the second.

First: TAAGTATACACATACACACACACACTAATAAAAAAA [CACACA_site8035]
Second: TATACACCCGGACACACACACATATATATATATATA [CACACA_site5030]
The “gcPBM binding intensity (ln)” value of the first is lower: 7.15 for the first, 9.12 for the second.

Going from “ATATATATATTATATGCACACGTTAAAATTTCATAT [CACACA_site4552]” to “TAAAAATATTAATAAACACACAATGAGATATTGAAT [CACACA_site3153]”, the “gcPBM binding intensity (ln)” value falls from 8.3 to 6.82.

Compared with “AAATATAAAATTTATTGTACATTATATATAATATAT [XGTACX_site1416]”, “TGATATATTTATATTACACACTTAAACGAAAAAAAA [CACACA_site3021]” is higher in “gcPBM binding intensity (ln)” value: 6.94 for the first, 6.96 for the second.

Going from “TATTATAATATTTATACACACATAATTTTGATAAAT [CACACA_site583]” to “CATTCTTGTTTAAAAAGTACATAAACATATATATAT [XGTACX_site1751]”, the “gcPBM binding intensity (ln)” value rises from 6.95 to 8.64.

Going from “AAAAAAAATAAAGAGAAAAAAAAAAGAAAATTATAT [GTGCAC_negctrl_site550]” to “TAAATTAATATGTATCGTACAATATATAAAACGATG [XGTACX_site2818]”, the “gcPBM binding intensity (ln)” value rises from 6.7 to 7.01.

First: ACATATTATATAACTCGTACTCGTAAAATATGTTGT [XGTACX_site2240]
Second: TTCTTCTGTTTTATTACACACCATTTTGCGTATACA [CACACA_site2070]
The “gcPBM binding intensity (ln)” value of the first is lower: 6.99 for the first, 7.6 for the second.

Going from “GTCATAAATGTACGCACACATACATAAACATATACA [CACACA_site650]” to “GTTCTTTTATATATTTGTACATATTTATATATATTG [XGTACX_site4078]”, the “gcPBM binding intensity (ln)” value falls from 7.61 to 7.51.
